Measured values reported in PubChem BioAssay AID2546 (National Center for Advancing Translational Sciences (NCATS), 2010).
Screen size: about 310,000 compounds; about 11,000 (3.5%) were called active. This list was built around the results that the source calls inconclusive (neither active nor inactive); the mix of calls is not that of the screen. Calls follow the shape of the dose curve; as a rule, active = well fitted inhibition curve with a large enough effect; inconclusive = small, poorly fitted or top-dose-only effect, or effect the other way; inactive = flat fitted curve, though single readings scatter. No potency is given beside an inconclusive call; the fits are too rough.

experiment: VP16 counterscreen qHTS for inhibitors of ROR gamma transcriptional activity; conditions: Drosophila S2 Gal4-VP16 UAS-luciferase, luminescence, 20 h; activity, negative = inhibition: at 53.6 µM (top of the series);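 also: Gal4-VP16 expression switched on by copper sulfate through the metallothionein promoter; nearly all actives have a fitted effect of over 50% in size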
% is scaled to controls: 0 for no effect and ±100 for the full control effect; potency is read from the fitted curve at half-maximal effect; tags tell the direction and shape of the fitted curve.

Row | Structure (SMILES) | Potency | activity, negative = inhibition
1 | COc1ccc(/C=C/C(=O)NCc2cn(C)nc2C)cc1COc1ccc(Cl)cc1Br | inconclusive [inhibitor, partial curve] | –
2 | O=C1CSC(c2ccc(Cl)cc2)N1 (centres undefined) | inconclusive [inhibitor, single point] | –
3 | O=C(c1ccncc1)N1CCC[C@@]2(CCN(c3cccc(-c4ccccc4)c3)C2)C1 | inactive | –
4 | COC(=O)c1cc(=O)n(Cc2cccs2)c(=Nc2ccc(F)cc2)s1 | inconclusive [inhibitor, single point] | –
5 | CC1CCN(CC(O)COc2ccc(-c3ccccc3)cc2)CC1 (centres undefined) | inactive | –
6 | Cc1ccc(S(=O)(=O)NCCCn2ccnc2)cc1 | inconclusive [activator, single point] | –
7 | C=CC(=O)c1ccc2ccccc2c1 | active: 0.708 µM | –
8 | O=C(/C=C/c1cccc(Cl)c1)c1nc2ccccc2[nH]1 | inconclusive [inhibitor, single point] | –
9 | CC(=O)CCS(=O)(=O)c1ccc(Oc2ccc(S(=O)(=O)CCC(C)=O)cc2)cc1 | inconclusive [inhibitor, single point] | –
10 | CCCc1cc(C(=O)NNC(=S)Nc2cccc(C)c2)cs1 | inconclusive [activator, single point] | –
11 | COc1ccc(C/C(C)=N/NC(=S)Nc2ccc(C(C)C)cc2)cc1 | inconclusive [inhibitor, single point] | –
12 | Brc1ccc2[nH]c3c(N4CCc5ccccc5C4)ncnc3c2c1 | inactive | –
13 | COc1ccc(Cc2nnc(SCC(=O)NCc3ccco3)o2)cc1 | inconclusive [activator, single point] | –
14 | COc1ccc(CNC(=S)Nc2cccc(C)c2C)cc1 | active: 7.94 µM | –
15 | O=C(N/N=C/C(Br)=C/c1ccccc1)c1cc(-c2ccco2)[nH]n1 | inconclusive [inhibitor, single point] | –
16 | COc1cccc(-n2c(C)nc3c(cnn3-c3ccc(C)cc3)c2=O)c1 | inactive | –
17 | O=C(CSc1ncnc2c1cnn2Cc1ccccc1)Nc1ccc2c(c1)OCCO2 | inconclusive [inhibitor, single point] | –
18 | COc1cccc(CN(Cc2ccco2)C(c2ccc(F)cc2)c2nnnn2C(C)(C)C)c1 (centres undefined) | active: 2.82 µM | –
19 | O=C(Nc1ccc(Cl)cn1)Nc1cccs1 | active: 14.1 µM | –
20 | Cc1ccc(/C=C2/C(=O)N(c3ccccc3)C(=S)N2C)o1 | inconclusive [inhibitor, single point] | –
21 | COC(=O)c1cc(=O)n(Cc2ccc3c(c2)OCO3)c(=Nc2ccc(F)c(Cl)c2)s1 | inactive | –
22 | COc1cc(Nc2ccc(S(N)(=O)=O)cc2)c([N+](=O)[O-])nc1[N+](=O)[O-] | inconclusive [inhibitor, single point] | –
23 | Cc1ccc(CS(=O)Cc2ccc(C(=O)NCc3ccc(OC(C)C)cc3)o2)cc1 (centres undefined) | inactive | –
24 | O=C(c1ccco1)N(CCC(c1ccccc1)c1ccco1)Cc1ccco1 (centres undefined) | inconclusive [activator, single point] | –
25 | c1ccc(Cc2ccc(OCCn3ccnc3)cc2)cc1 | inconclusive [inhibitor, single point] | –

Row | Structure (SMILES) | Potency | activity, negative = inhibition
26 | Cc1ccccc1C(=O)NC(=S)N(CCO)Cc1ccccc1 | active: 2.82 µM | –
27 | COC(=O)Cc1csc(Nc2ccc(Cl)cc2)n1 | inconclusive [activator, full curve] | –
28 | O=c1n(-c2ccc(Br)cc2)cnn1-c1ncccc1[N+](=O)[O-] | inconclusive [activator, single point] | –
29 | COc1cc2c3c(c1)/C(=C1/SC(NC(C)=O)=NC1=O)C(=O)N3C(C)(C)C=C2C | inconclusive [inhibitor, single point] | –
30 | COc1ccc(NC(=S)NCc2ccccc2)c(OC)c1 | inconclusive [inhibitor, single point] | –
31 | CCOC(=O)CC1(C)SC(NC(C)=O)=NN1C(C)=O (centres undefined) | inconclusive [inhibitor, single point] | –
32 | CCc1ccccc1NC(=S)N1CCC(C(=O)c2ccc(F)cc2)CC1 | inconclusive [inhibitor, single point] | –
33 | COc1ccc(C(=O)NC(=S)N(Cc2ccccc2)Cc2ccccc2)cc1 | active: 0.562 µM | –
34 | CC(C)(C)c1ccc(-n2ncc3c2CCCC3NC(=O)C2=NNC(=O)CC2)cc1 (centres undefined) | inconclusive [inhibitor, single point] | –
35 | Cn1c(Cl)nc2c1c(=O)n(Cc1cccc(Br)c1)c(=O)n2C | inactive | –
36 | O=C(CSc1ccc(-c2ccccc2)nn1)N1CCCCC1 | inconclusive [activator, single point] | –
37 | COc1ccccc1C(=O)NC(=S)N1CCc2ccccc21 | inconclusive [inhibitor, single point] | –
38 | COc1ccc(NC(=S)Nc2ccccc2C(F)(F)F)cc1 | inconclusive [inhibitor, single point] | –
39 | O=C(NCCc1ccccc1)C1CC(c2ccccc2O)=NO1 (centres undefined) | inconclusive [inhibitor, single point] | –
40 | COCCNC(=O)CN1CCC(NC(=O)c2ccco2)CC1 | inconclusive [inhibitor, single point] | –
41 | CCc1cc2c(=O)nc3n(c2s1)Cc1ccccc1/C3=C(/O)c1ccc(F)cc1 | inconclusive [inhibitor, single point] | –
42 | CCN(CCCNC(=O)C1CCN(S(=O)(=O)CC)CC1)c1cccc(C)c1 | inactive | –
43 | Cc1oc(C(=O)O)cc1COc1cccc2ccccc12 | inactive | –
44 | N#CC1=C(N)Oc2n[nH]c(-c3ccncc3)c2C1c1ccsc1 (centres undefined) | inconclusive [activator, single point] | –
45 | CC(C)Sc1nc2ccc(N3C(=O)C4CCCCC4C3=O)cc2s1 (centres undefined) | inconclusive [activator, single point] | –
46 | Cc1cc(C)cc(N2C(=O)CC(Sc3nnnn3-c3ccccc3)C2=O)c1 (centres undefined) | active: 7.08 µM | –
47 | C(=N\Nc1nc(Nc2ccccc2)nc(Nc2ccccc2)n1)/c1cccnc1 | inconclusive [inhibitor, partial curve] | –
48 | COC(=O)Sc1nc(N2CCOCC2)c2c(c1C#N)CC(C)(C)OC2 | inconclusive [inhibitor, single point] | –
49 | CCCCOc1ccc(C(=O)Nc2ccc(OCC(=O)N3CCOCC3)cc2)cc1 | inconclusive [inhibitor, single point] | –
50 | CCOC(=O)c1cnn(-c2nc3sc4c(c3c(=O)[nH]2)CCCC4)c1N | active: 0.794 µM | –

Row | Structure (SMILES) | Potency | activity, negative = inhibition
51 | CCOc1ccc(NS(=O)(=O)c2ccc(C(=O)N3CCN(C(C)=O)CC3)cc2)cc1 | active: 20 µM | –
52 | O=C(CCCn1c(=S)[nH]c2ccsc2c1=O)NCCc1ccccc1 | inconclusive [inhibitor, single point] | –
53 | O=c1c2ccc([N+](=O)[O-])cc2ncn1CCOc1ccc(Cl)cc1 | inactive | –
54 | CC1CCCC(NS(=O)(=O)c2ccc3c(c2)OCCO3)C1C (centres undefined) | inconclusive [inhibitor, single point] | –
55 | O=C(NCc1ccco1)/C(=C\c1cccnc1)NC(=O)c1ccccc1F | inactive | –
56 | O=C(Nc1nccs1)c1ccc(COc2ccccc2Br)o1 | inactive | –
57 | Cc1cc(N2CCOCC2)nc(-c2ccc(Br)cc2)n1 | inconclusive [activator, single point] | –
58 | O=C(c1ccc2c(c1)OCCO2)C1CCN(S(=O)(=O)c2ccc(F)cc2)CC1 | inactive | –
59 | CC1CN(c2ncnc3c2c(-c2ccccc2)cn3-c2ccc(F)cc2)CC(C)O1 (centres undefined) | inactive | –
60 | O=C(CN1CCCCC1)Nc1cccc(Oc2ccccc2)c1 | inactive | –
61 | COc1ccc(CC(=O)NNC(=O)CCc2ccccc2)cc1OC | – | inactive: -0.939% [at 10 µM]
62 | O=[N+]([O-])c1cccc(/C=C/c2nc(C=Nc3ccccc3)c(O)o2)c1 | inconclusive [inhibitor, single point] | –
63 | CC(C)CCn1nc(C(=O)Nc2nc3c(s2)CCCC3)c2ccccc2c1=O | inconclusive [inhibitor, single point] | –
64 | Cc1ccc(C2=[N+]([O-])C3(CCCCC/C3=N\NC(N)=S)N(O)C2(C)C)o1 (centres undefined) | active: 2.24 µM | –
65 | CCn1cc(C2=NC(CCSC)CO2)c2ccccc21 (centres undefined) | inconclusive [inhibitor, single point] | –
66 | COc1ccc(CNC(=S)Nc2cccc(F)c2)cc1 | active: 6.31 µM | –
67 | O=C/C(=C\Nc1ccccn1)c1nc2ccccc2o1 | inconclusive [inhibitor, partial curve, poor fit] | –
68 | CC(C)(C)OC(=O)NCCCCCc1nnc(SCc2ccccc2)o1 | inconclusive [inhibitor, single point] | –
69 | CCOC(=O)N1CCC(NC(=O)CCc2c(C)nc3c(c(C)nn3C(C)(C)C)c2C)CC1 | inconclusive [inhibitor, single point] | –
70 | CCOc1ccccc1C(=O)Nc1cc(C)ccc1NC(=O)c1ccco1 | inactive | –
71 | CCOc1ccc(-c2cc(C(=O)N3CCN(C)CC3)c3ccccc3n2)cc1 | inconclusive [inhibitor, single point] | –
72 | O=C(NCc1ccccn1)c1cc2ccccn2n1 | inconclusive [inhibitor, single point] | –
73 | O=C(N/N=C/c1ccc(Sc2ccccn2)o1)c1cccc([N+](=O)[O-])c1 | active: 11.2 µM | –
74 | Nc1ccc(-c2nc3c(ccc4ccccc43)[nH]2)cc1 | inconclusive [inhibitor, partial curve] | –
